Drawing on the supplement of paper PMC5919970, this text covers fractional viability for 46 compounds.

SMILES strings stand for the structures. Where a name gives a salt, the structure may show the parent alone. The full ranking holds about 2,000 compounds; the median of “fractional viability relative to vehicle” is about 0.92, and the lowest 2% start at about 0.11. This is one part of the list.

In the assay the test system is TYKNU. As to the kind of experiment: fractional viability relative to vehicle; TYKNU is a high-grade serous ovarian cancer line; higher = less growth inhibition. Conditions: 72 h, genotype: OPA1 knockout (sgOPA1 #2). A digest of the protocol:
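Drug treatment lasted 72 h, with cells grown at 37 °C in 5% CO2 in RPMI 1640 supplemented with 10% FBS. Beforehand, TYKNU control cells or their lentiCRISPRv2 knockout derivatives had been seeded at 500 cells per well into drug-stamped 384-well plates carrying a ~2100-compound library at 2 or 10 μM, in duplicate. Viability came from Cell Titer Glo luminescence, with averaged duplicate treatment wells normalised to duplicate control wells in the same plate position.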

`CC(C)N(C[C@H]1O[C@@H](n2cnc3c(N)ncnc32)[C@H](O)[C@@H]1O)[C@H]1C[C@@H](CCc2nc3cc(C(C)(C)C)ccc3[nH]2)C1` came in with a fractional viability (2uM) of 0.944 and a fractional viability (10uM) of 0.718.

Regarding `CC(C)OC(=O)[C@H](C)N[P@](=O)(OC[C@H]1O[C@@H](n2ccc(=O)[nH]c2=O)[C@](C)(F)[C@@H]1O)Oc1ccccc1` [Sofosbuvir (PSI-7977, GS-7977)], the fractional viability by setting is: (2uM) 0.955; (10uM) 1.04.

In the case of `Nc1nc2c(ncn2[C@@H]2O[C@H](CO)[C@@H](O)[C@H]2O)c(=O)[nH]1` [Guanosine], the fractional viability is, setting by setting: (2uM) 0.462; (10uM) 0.571.

Turning to `CC1(C)S[C@@H]2[C@H](NC(=O)[C@H](NC(=O)N3CCNC3=O)c3ccccc3)C(=O)N2[C@H]1C(=O)O` [Azlocillin sodium salt], the fractional viability is, setting by setting: (2uM) 0.997; (10uM) 1.01.

`CCn1c2ccccc2c2cc(Nc3ccnc(NCCCN4CCOCC4)n3)ccc21` had a fractional viability (2uM) of 0.976 and a fractional viability (10uM) of 0.169.

On to `O=C1[C@H](Cc2ccc(O)cc2)N2C(=O)CCN(C(=O)NCc3ccccc3)[C@H]2CN1Cc1cccc2ccccc12`, for which the fractional viability worked out at 0.962 (2uM) and 0.449 (10uM).

With `CC1CC(OC(=O)C(O)c2ccccc2)CC(C)(C)C1` (configuration not stated) [Cyclandelate], the fractional viability reads like this: (2uM) 0.868; (10uM) 0.791.

Regarding `O=C(O)c1cccnc1Nc1cccc(C(F)(F)F)c1` [Niflumic acid], the fractional viability is, setting by setting: (2uM) 1.05; (10uM) 0.835.

As for `Cc1oncc1C(=O)Nc1ccc(C(F)(F)F)cc1` [Leflunomide], the fractional viability (2uM) came to 0.905 and the fractional viability (10uM) was found to be 0.685.

Regarding `CCOC(=O)[C@H](CCc1ccccc1)N[C@@H](C)C(=O)N1Cc2ccccc2C[C@H]1C(=O)O` [Quinapril HCl], the fractional viability by setting is: (2uM) 0.865; (10uM) 0.922.

Turning to `CC(CCc1ccccc1)NCC(O)c1ccc(O)c(C(N)=O)c1` (configuration not stated) [Labetalol HCl], the fractional viability is, setting by setting: (2uM) 1.03; (10uM) 0.883.

For the compound `Cn1cc(-c2ccc3ncc(Cc4ccc5ncccc5c4)n3n2)cn1`, the fractional viability by setting is: (2uM) 1.09; (10uM) 1.16.

The compound `Cc1cc(NC(=O)Nc2ccc(N(C)C)cc2)c2cc(F)cc(F)c2n1` displayed a fractional viability (2uM) of 1.08 and a fractional viability (10uM) of 0.956.

For `Cc1onc(-c2c(Cl)cccc2Cl)c1C(=O)N[C@@H]1C(=O)N2[C@@H]1SC(C)(C)[C@@H]2C(=O)O` [Dicloxacillin Sodium], the fractional viability turned out to be 1.03 (2uM) and 0.986 (10uM).

As for `CN(C)/N=N/c1[nH]cnc1C(N)=O` [Dacarbazine], the fractional viability was found to be 1.16 (2uM) and 1.48 (10uM).

For `CC1C(=O)OC2C(O)C34C5CC(C(C)(C)C)C36C(OC(=O)C6O)OC4(C(=O)O5)C12O` (configuration not stated) [Ginkgolide B], the fractional viability runs as follows: (2uM) 0.99; (10uM) 1.12.

`CCCSc1nc(N[C@@H]2C[C@H]2c2ccc(F)c(F)c2)c2nnn([C@@H]3C[C@H](OCCO)[C@@H](O)[C@H]3O)c2n1` [Ticagrelor]: the fractional viability is 1.28 (2uM) and 1.08 (10uM).

In the case of `C=CC(=O)Nc1cccc(Nc2nc(Nc3ccc(Oc4ccnc(C(=O)NC)c4)cc3)ncc2F)c1`, the fractional viability runs as follows: (2uM) 1.12; (10uM) 0.311.

Consider `C=C1C[C@@]2(O)O[C@@]3(C[C@H]2C(C)C)[C@@H](C)CC[C@@H]13` [Curcumol], for which the fractional viability by setting is: (2uM) 1.12; (10uM) 1.1.

In the case of `O=C(O)COCCN1CCN(C(c2ccccc2)c2ccc(Cl)cc2)CC1` (configuration not stated) [Cetirizine DiHCl], the fractional viability is, setting by setting: (2uM) 1.44; (10uM) 1.02.

The compound `Cn1cc(-c2cnn3c(N)c(Br)c([C@@H]4CCCNC4)nc23)cn1` came in with a fractional viability (2uM) of 0.571 and a fractional viability (10uM) of 0.814.

As for `N[C@H]1C[C@@H]1c1ccc(-c2cccc(O)c2)cc1`, the fractional viability runs as follows: (2uM) 1.18; (10uM) 0.857.

Consider `CC(C)c1cc(-c2n[nH]c(=O)n2-c2ccc3c(ccn3C)c2)c(O)cc1O` [Ganetespib (STA-9090)], for which the fractional viability reads like this: (2uM) 0.683; (10uM) 0.535.

As for `CC(=O)O[C@]1(C(C)=O)CC[C@H]2[C@@H]3C=C(Cl)C4=CC(=O)[C@@H]5C[C@@H]5[C@]4(C)[C@H]3CC[C@@]21C` [Cyproterone Acetate], the fractional viability is, setting by setting: (2uM) 1.03; (10uM) 0.956.

For `COc1ccc(-c2ccc3ncc4c(c3c2)n(-c2ccc(N3CCNCC3)c(C(F)(F)F)c2)c(=O)n4C)cn1`, the fractional viability is, setting by setting: (2uM) 0.111; (10uM) 0.0546.

As to `COc1cc2nc(N(C)CCCNC(=O)C3CCCO3)nc(N)c2cc1OC` (configuration not stated) [Alfuzosin HCl], the fractional viability runs as follows: (2uM) 1.13; (10uM) 0.809.

For `O=C(O)/C=C/c1ccc(O)c(O)c1` [Caffeic Acid], the fractional viability reads like this: (2uM) 0.956; (10uM) 0.889.

As to `CC1(C)CC(=O)c2c(C(F)(F)F)nn(-c3ccc(C(N)=O)c(N[C@H]4CC[C@H](O)CC4)c3)c2C1`, the fractional viability is, setting by setting: (2uM) 0.668; (10uM) 0.574.

Take `CCCCc1nc2cc(/C=C/C(=O)NO)ccc2n1CCN(CC)CC` [Pracinostat (SB939)]: the fractional viability runs as follows: (2uM) 0.301; (10uM) 0.172.

For the compound `N#CSc1cc(SC#N)c(N)nc1N`, the fractional viability worked out at 0.754 (2uM) and 0.24 (10uM).

Consider `CC(=O)Nc1nc2c(Oc3cc(-c4ccc(C(F)(F)F)cc4)ncn3)cccc2s1`, for which the fractional viability by setting is: (2uM) 0.977; (10uM) 1.16.

Consider `N[C@@H](Cc1c[nH]c2ccc(O)cc12)C(=O)O` [5-hydroxytryptophan (5-HTP)], for which the fractional viability is, setting by setting: (2uM) 1.06; (10uM) 0.895.

`CC(C)n1nc(-c2ccc3oc(N)nc3c2)c2c(N)ncnc21` yielded a fractional viability (2uM) of 0.393 and a fractional viability (10uM) of 0.333.

Consider `O=C(O)c1cc(C(F)(F)F)ccc1N1CC[C@H](OCc2ccccn2)C1`, for which the fractional viability turned out to be 0.855 (2uM) and 0.787 (10uM).

Take `N=C(N)Nc1ccc(C(=O)Oc2ccc3cc(C(=N)N)ccc3c2)cc1` [Nafamostat Mesylate]: the fractional viability by setting is: (2uM) 1.13; (10uM) 1.11.

Compound `NC(=O)c1nc(F)cnc1O` [Favipiravir (T-705)] registered a fractional viability (2uM) of 0.744 and a fractional viability (10uM) of 0.765.

For `O=C(NO)c1cccc(C(=O)NCCc2ccccc2)c1`, the fractional viability turned out to be 0.926 (2uM) and 0.933 (10uM).

`C[C@]12CC[C@H](O)CC1=CC[C@@H]1[C@@H]2CC[C@]2(C)C(n3cnc4ccccc43)=CC[C@@H]12` [Galeterone]: the fractional viability is, setting by setting: (2uM) 0.858; (10uM) 0.864.

Take `CC1=C(/C=C/C(C)=C/C=C/C(C)=C/C(=O)O)C(C)(C)CCC1` [Tretinoin]: the fractional viability amounted to 0.691 (2uM) and 0.801 (10uM).

With `CC(=O)Oc1ccccc1C(=O)O` [Aspirin], the fractional viability amounted to 0.917 (2uM) and 1.09 (10uM).

`CNS(=O)(=O)CCc1ccc2[nH]cc(C3CCN(C)CC3)c2c1` [Naratriptan]: the fractional viability turned out to be 1.16 (2uM) and 0.985 (10uM).

Turning to `COc1ccc2ccc(=O)oc2c1CC=C(C)C` [Osthole], the fractional viability worked out at 0.99 (2uM) and 1.05 (10uM).

Take `O=C(Nc1nc2cccc(-c3ccc(CN4CCS(=O)(=O)CC4)cc3)n2n1)C1CC1` [Filgotinib (GLPG0634)]: the fractional viability was 0.887 (2uM) and 0.479 (10uM).

As for `N=C(N)NS(=O)(=O)c1ccc(N)cc1` [Sulfaguanidine], the fractional viability (2uM) turned out to be 0.966 and the fractional viability (10uM) amounted to 0.96.

In the case of `CC1(C)[C@H](C(=O)O)N2C(=O)C[C@H]2S1(=O)=O` [Sulbactam], the fractional viability runs as follows: (2uM) 1.08; (10uM) 0.954.

On to `CC1(C)[C@H](C(=O)O)N2C(=O)C[C@H]2S1(=O)=O` [Sulbactam sodium], for which the fractional viability reads like this: (2uM) 1.1; (10uM) 0.999.
